Substitutions are numbered along the chain they refer to; changes in the protein carry UniProt numbers. The list shows a part of the results.
T1: RBFOX1 RRM (Homo sapiens, UniProt Q9NWB1 109-208)
T1 sequence: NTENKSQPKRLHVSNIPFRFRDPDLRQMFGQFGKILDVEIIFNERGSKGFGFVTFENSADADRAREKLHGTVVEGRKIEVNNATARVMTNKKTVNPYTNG

B1: UGACCUU (DNA:RNA)
RNA: GGGAGACCGGAAUUCAGAUUGUCCUGACCUUUUAAAUCCCGUCGUAGCCACCA
DNA 1: CAATCTGAATTCCGGTCTCCC
DNA 2: TGGTGGCTACGACGGGATT
B2: CUCUAUA (DNA:RNA)
RNA: B1 RNA with U25C, G26U, A27C, C28U, C29A, U31A
DNA 1: CAATCTGAATTCCGGTCTCCC
DNA 2: TGGTGGCTACGACGGGATT
B3: UAGUGUA (DNA:RNA)
RNA: B1 RNA with G26A, A27G, C28U, C29G, U31A
DNA 1: CAATCTGAATTCCGGTCTCCC
DNA 2: TGGTGGCTACGACGGGATT
B4: AGACCCC (DNA:RNA)
RNA: B1 RNA with U25A, U30C, U31C
DNA 1: CAATCTGAATTCCGGTCTCCC
DNA 2: TGGTGGCTACGACGGGATT
B5: GUUAAAC (DNA:RNA)
RNA: GGGAGACCGGAAUUCAGAUUGUCCGUUAAACUUAAAUCCCGUCGUAGCCACCA
DNA 1: CAATCTGAATTCCGGTCTCCC
DNA 2: TGGTGGCTACGACGGGATT
B6: CUUUGCA (DNA:RNA)
RNA: B5 RNA with G25C, A28U, A29G, A30C, C31A
DNA 1: CAATCTGAATTCCGGTCTCCC
DNA 2: TGGTGGCTACGACGGGATT
B7: UGCGCUC (DNA:RNA)
RNA: B1 RNA with A27C, C28G, U31C
DNA 1: CAATCTGAATTCCGGTCTCCC
DNA 2: TGGTGGCTACGACGGGATT
B8: AUGCGAG (DNA:RNA)
RNA: B5 RNA with G25A, U27G, A28C, A29G, C31G
DNA 1: CAATCTGAATTCCGGTCTCCC
DNA 2: TGGTGGCTACGACGGGATT
B9: AAGGGAG (DNA:RNA)
RNA: B5 RNA with G25A, U26A, U27G, A28G, A29G, C31G
DNA 1: CAATCTGAATTCCGGTCTCCC
DNA 2: TGGTGGCTACGACGGGATT
B10: UGGAGGA (DNA:RNA)
RNA: B1 RNA with A27G, C28A, C29G, U30G, U31A
DNA 1: CAATCTGAATTCCGGTCTCCC
DNA 2: TGGTGGCTACGACGGGATT
B11: AACACAC (DNA:RNA)
RNA: B5 RNA with G25A, U26A, U27C, A29C
DNA 1: CAATCTGAATTCCGGTCTCCC
DNA 2: TGGTGGCTACGACGGGATT
B12: CGCGCCG (DNA:RNA)
RNA: B1 RNA with U25C, A27C, C28G, U30C, U31G
DNA 1: CAATCTGAATTCCGGTCTCCC
DNA 2: TGGTGGCTACGACGGGATT
B13: CGAUGGG (DNA:RNA)
RNA: B1 RNA with U25C, C28U, C29G, U30G, U31G
DNA 1: CAATCTGAATTCCGGTCTCCC
DNA 2: TGGTGGCTACGACGGGATT
B14: AGCUACU (DNA:RNA)
RNA: B1 RNA with U25A, A27C, C28U, C29A, U30C
DNA 1: CAATCTGAATTCCGGTCTCCC
DNA 2: TGGTGGCTACGACGGGATT
B15: ACUAGGC (DNA:RNA)
RNA: B5 RNA with G25A, U26C, A29G, A30G
DNA 1: CAATCTGAATTCCGGTCTCCC
DNA 2: TGGTGGCTACGACGGGATT
B16: CAGCCAA (DNA:RNA)
RNA: B1 RNA with U25C, G26A, A27G, U30A, U31A
DNA 1: CAATCTGAATTCCGGTCTCCC
DNA 2: TGGTGGCTACGACGGGATT
B17: AAUCAUC (DNA:RNA)
RNA: B5 RNA with G25A, U26A, A28C, A30U
DNA 1: CAATCTGAATTCCGGTCTCCC
DNA 2: TGGTGGCTACGACGGGATT
B18: GGGUCAG (DNA:RNA)
RNA: B5 RNA with U26G, U27G, A28U, A29C, C31G
DNA 1: CAATCTGAATTCCGGTCTCCC
DNA 2: TGGTGGCTACGACGGGATT
B19: CCGGAGC (DNA:RNA)
RNA: B5 RNA with G25C, U26C, U27G, A28G, A30G
DNA 1: CAATCTGAATTCCGGTCTCCC
DNA 2: TGGTGGCTACGACGGGATT
B20: GCUCCUU (DNA:RNA)
RNA: B1 RNA with U25G, G26C, A27U
DNA 1: CAATCTGAATTCCGGTCTCCC
DNA 2: TGGTGGCTACGACGGGATT
B21: CUCCUAG (DNA:RNA)
RNA: B5 RNA with G25C, U27C, A28C, A29U, C31G
DNA 1: CAATCTGAATTCCGGTCTCCC
DNA 2: TGGTGGCTACGACGGGATT
B22: GGCACAU (DNA:RNA)
RNA: B5 RNA with U26G, U27C, A29C, C31U
DNA 1: CAATCTGAATTCCGGTCTCCC
DNA 2: TGGTGGCTACGACGGGATT
B23: CACUCAA (DNA:RNA)
RNA: B5 RNA with G25C, U26A, U27C, A28U, A29C, C31A
DNA 1: CAATCTGAATTCCGGTCTCCC
DNA 2: TGGTGGCTACGACGGGATT
B24: CGGCGCC (DNA:RNA)
RNA: B1 RNA with U25C, A27G, C29G, U30C, U31C
DNA 1: CAATCTGAATTCCGGTCTCCC
DNA 2: TGGTGGCTACGACGGGATT
B25: GAGCUGG (DNA:RNA)
RNA: B5 RNA with U26A, U27G, A28C, A29U, A30G, C31G
DNA 1: CAATCTGAATTCCGGTCTCCC
DNA 2: TGGTGGCTACGACGGGATT
B26: UAUUUUC (DNA:RNA)
RNA: B5 RNA with G25U, U26A, A28U, A29U, A30U
DNA 1: CAATCTGAATTCCGGTCTCCC
DNA 2: TGGTGGCTACGACGGGATT
B27: GGUUUGU (DNA:RNA)
RNA: B5 RNA with U26G, A28U, A29U, A30G, C31U
DNA 1: CAATCTGAATTCCGGTCTCCC
DNA 2: TGGTGGCTACGACGGGATT
B28: GAGAGGU (DNA:RNA)
RNA: B5 RNA with U26A, U27G, A29G, A30G, C31U
DNA 1: CAATCTGAATTCCGGTCTCCC
DNA 2: TGGTGGCTACGACGGGATT
B29: CACUUUC (DNA:RNA)
RNA: B5 RNA with G25C, U26A, U27C, A28U, A29U, A30U
DNA 1: CAATCTGAATTCCGGTCTCCC
DNA 2: TGGTGGCTACGACGGGATT
B30: CGCAUCG (DNA:RNA)
RNA: B5 RNA with G25C, U26G, U27C, A29U, A30C, C31G
DNA 1: CAATCTGAATTCCGGTCTCCC
DNA 2: TGGTGGCTACGACGGGATT
B31: GAUGUCA (DNA:RNA)
RNA: B5 RNA with U26A, A28G, A29U, A30C, C31A
DNA 1: CAATCTGAATTCCGGTCTCCC
DNA 2: TGGTGGCTACGACGGGATT

The binders below were run against T1, RBFOX1 RRM (assay: EMSA; HiTS-Eq, 1 nM pool, 10 min; buffer printed only for the single-RNA assays: 10 mM Tris pH 7.5, 150 mM NaCl, 3.4 mM EDTA, 0.001% NP-40, 30 C). Settings: tags: His6 N-terminal (pET28a); label: 5' 32P.
Method in brief: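 A pool of RNA with 7 randomized nucleotides, 5′-radiolabelled and with DNA-annealed flanks, was equilibrated at 1 nM for 10 min in 50 µL with purified RbFox RRM, wild type or mutant, across increasing protein concentrations. Free RNA was separated by 8% native PAGE, excised, reverse-transcribed, barcoded by PCR and sequenced. Relative association constants were obtained from read-count changes of each RNA species versus the control reaction and normalised to the cognate motif.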
For B1, the binding signal was 0.0113 KA relative to UGCAUGU. With B2 the binding signal was 0.0022 KA relative to UGCAUGU. With B3 the binding signal was 0.0176 KA relative to UGCAUGU. For B4, the binding signal was 0.0038 KA relative to UGCAUGU. With B5 the binding signal was 0.00333 KA relative to UGCAUGU. In the case of B6, the binding signal is reported as 0.0214 KA relative to UGCAUGU. For B7, the binding signal was 0.018 KA relative to UGCAUGU. In the case of B8, the binding signal is reported as 0.0138 KA relative to UGCAUGU. B9 was tested, and the binding signal was 0.00672 KA relative to UGCAUGU. With B10 the binding signal was 0.0139 KA relative to UGCAUGU. With B11 the binding signal was 0.000478 KA relative to UGCAUGU. With B12 the binding signal was 0.00795 KA relative to UGCAUGU. B13 was tested, and the binding signal was 0.00511 KA relative to UGCAUGU. In the case of B14, the binding signal is reported as 0.00701 KA relative to UGCAUGU. B15 was tested, and the binding signal was 0.00637 KA relative to UGCAUGU. For B16, the binding signal was 0.00165 KA relative to UGCAUGU. With B17 the binding signal was 0.00129 KA relative to UGCAUGU. For B18, the binding signal was 0.0155 KA relative to UGCAUGU. B19 was tested, and the binding signal was 0.0166 KA relative to UGCAUGU. For B20, the binding signal was 0.00439 KA relative to UGCAUGU. For B21, the binding signal was 0.006 KA relative to UGCAUGU. B22 was tested, and the binding signal was 0.000691 KA relative to UGCAUGU. For B23, the binding signal was 0.000845 KA relative to UGCAUGU. With B24 the binding signal was 0.0128 KA relative to UGCAUGU. B25 was tested, and the binding signal was 0.0259 KA relative to UGCAUGU. B26 was tested, and the binding signal was 0.0125 KA relative to UGCAUGU. B27 was tested, and the binding signal was 0.0171 KA relative to UGCAUGU. B28 was tested, and the binding signal was 0.0104 KA relative to UGCAUGU. B29 was tested, and the binding signal was 0.00518 KA relative to UGCAUGU. For B30, the binding signal was 0.017 KA relative to UGCAUGU. With B31 the binding signal was 0.015 KA relative to UGCAUGU.
